The text below walks through data of PubChem BioAssay AID1918933 (Molecular Pharmacology Branch, DTP, NCI, 2023).

This test relates to 186277-243-T-J2-PDC complex spheroid viability. Nature of the test: Anticancer human tumor 186277-243-T-J2-PDC patient-derived colon adenocarcinoma cell line growth inhibition. The settings on record: for viability, T/C: stronger effect = lower value. From the text:
Multicellular complex tumor spheroid response to LSD1 Inhibitor Iadademstat in combination with a variety of drugs and investigational agents in selected tumor cell lines
The current study was undertaken to assess response to LSD1 inhibitors in combination with standard-of-care drugs and investigational agents in solid tumor complex spheroid models as well as in the K-562 leukemia. Complex spheroids include a stromal component modeled by human endothelial cells (HUVEC) and fibroblasts modeled by human mesenchymal stem cells (MSCs). The concentration ranges selected for each drug and investigational agent were based upon clinically achievable concentrations if the clinical Cmax of the agent was known.
Compounds. The drugs and investigational agents used in this study are listed on Table 1. All of the agents used, including staurosporine (NSC755774) and gemcitabine (NSC613327), were obtained from the Developmental Therapeutics Program, NCI. FDA-approved anticancer drugs are available from the NCI at http://dtp.nci.nih.gov/branches/dscb/oncology_drugset_explanation.html. Drugs and investigational agents were >95% pure by proton nuclear magnetic resonance (NMR) and liquid chromatography/mass spectrometry (LC/MS). Stock solutions were prepared at 400x in DMSO, stored at -70 degrees C, and diluted in fresh medium prior to their use. The final concentration of DMSO in cell culture wells never exceeded 0.25% (v/v). The FDA-approved anticancer drug set is available from the Developmental Therapeutics Program at https://dtp.cancer.gov/organization/dscb/obtaining/available_plates.htm. All drugs and investigational agents were tested over a range starting from a high concentration at or near the clinical Cmax and decreasing in half-log increments. If the clinical Cmax for an agent had not been determined, the highest concentration tested was 10 microM.
Cell Lines. The patient-derived cancer cell (PDC) lines: 292921-168-R-J2-PDC, K24384-001-R-PDC, and 521955-158-R2-J5-PDC pancreatic carcinomas, 556581-035-R-J1 ovarian carcinoma, 324938-238-R-J1-PDC, 855422-203-R-J1-PDC and 883617-216-R-J1-PDC urothelial bladder carcinomas, 743489-274-T-PDC renal cell carcinoma, 138582-R-J1 Merkel cell tumor, K60290-347-R-J1 and K57222-313-R-J1-PDC glioblastomas, 653999-131-R-J2-PDC, LG0703-F948-PDC, and 349418-098-R-PDC non-small cell lung carcinomas, 885512-296-R-J2-PDC, 171881-019-R-J1-PDC breast carcinomas and 186277-243-T-J2-PDC and 233499-124-R-J2-PDC colon carcinomas were obtained from the NCI Patient-Derived Models Repository (PDMR, https://pdmr.cancer.gov). The established cell lines NCI/ADR-RES (RRID:CVCL_14520 and OVCAR-5 (RRID:CVCL_1628) ovarian carcinomas, 786-O (RRID:CVCL_1051) and A498 (RRID:CVCL_A498) renal cell carcinoma, NCI-H211 (ATCC, cat. CRL-5824; RRID:CVCL_1529), NCI-H196 (ATCC, cat. CRL-5823, RRID:CVCL_1509), SW 1271 (ATCC, cat. CRL-2177, RRID:CVCL_1716) and NCI-H1876 (ATCC, cat. CRL-5902, RRID:CVCL_1503) small cell lung carcinomas, MDA-MB-231 (RRID:CVCL_0062) and MDA-MB-468 (RRID:CVCL_0419)breast carcinomas (10-12). Pooled donor human umbilical vein endothelial cells (HUVEC, Lonza, cat. CC-2519) and human mesenchymal stem cells (hMSC, Lonza, cat. PT-2501) were purchased from Lonza (Walkersville, MD).
Cell Culture. All cells were maintained in an incubator at 37 degrees C and 5% CO2 with 95% humidity. The PDC lines were cultured according to standard operating procedures established by the NCI PDMR (https://pdmr.cancer.gov). Briefly all PDCs were thawed and cultured in Matrigel-coated flasks prepared with a working solution of 1X Ham's F-12 nutrient mix, without supplementation (Invitrogen, Waltham, MA, cat. 11765054), 100 U/mL penicillin-streptomycin (Invitrogen, cat. 15140122), and 2.5% Matrigel (Corning Inc., Corning, NY, cat. 354248) for the first three passages. […]

Structures are written as SMILES. A number of entries come with more than one value. The list is limited to them. An entry can have further records. Results that share an entry are repeats in other runs, samples, wells, individuals or studies. Signs of the kind (2×) count equal records among those shown. Marks such as [2022-09] give the month of the run.
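Note: 7 day exposure to compounds.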
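Throughout, for viability, T/C: 100% = DMSO vehicle control viability.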

`O=C(C=Cc1cccc(S(=O)(=O)Nc2ccccc2)c1)NO`: the viability, T/C (compound alone 3 µM) is 3.15% [2022-01] and 99.2% [2022-02].

Consider `CC(C)CC(NC(=O)C(Cc1ccccc1)NC(=O)c1cnccn1)B(O)O` (configuration not stated), for which the viability, T/C reads like this: (compound alone 0.001 µM) 100% [2022-01] and 1.72% [2022-02]; (compound alone 0.00316 µM) 43.1% [2022-01] and 0.23% [2022-02].

By IC50 is commonly meant the point on the concentration scale where inhibition reaches its midpoint. In the case of `COc1cc(Nc2ncc3c(n2)-c2ccc(Cl)cc2C(c2c(F)cccc2OC)=NC3)ccc1C(=O)O`, the IC50 (compound alone) was 13.8 nM [2022-01] and > 1 µM [2022-02]. Besides, the viability, T/C (compound alone 0.316 µM) is 0.36% [2022-01] and 106% [2022-02]; the viability, T/C (compound alone 1 µM) was 0.07% [2022-01] and 95.3% [2022-02].

For the compound `NC1CCC(NC2CC2c2ccccc2)CC1` (configuration not stated), the viability, T/C runs as follows: (compound alone 0.1 µM) 107, 99.7, 94.7, 112, 102, 111, 115 (3×), 118 (3×), 106 (2×), 116, 86, 113, 97.4, 97.7, 119, 97.2, 105, 95.9, 122, 93.9%; (compound alone 1 µM) 112 (2×), 94.9, 98.4, 97, 114 (3×), 107, 115 (3×), 103 (2×), 111 (2×), 118 (2×), 108, 110 (2×), 98.2, 124, 101, 96.9%; (compound alone 3.16 µM) 111 (3×), 97.7, 107 (4×), 108 (2×), 117 (2×), 118, 120, 112 (2×), 105, 91.2, 110 (3×), 116, 102, 132, 119%; (compound alone 10 µM) 103 (2×), 99.1, 105 (5×), 110, 114 (2×), 112, 116, 97.9, 87.1, 113, 107 (4×), 99.9, 120, 122%.

For `NC1CC1c1ccc(-c2cccc(O)c2)cc1` (configuration not stated), the viability, T/C runs as follows: (compound alone 1 µM) 106 (5×), 104 (4×), 112 (2×), 109, 119, 100, 116, 102, 105 (2×), 113 (2×), 89.4, 99.2, 114, 94.1, 96.1%; (compound alone 10 µM) 101 (4×), 113 (2×), 104 (2×), 110, 106 (2×), 98.2, 94.9, 97.7, 94.7, 124, 115, 92.8, 112, 99.2, 97.3, 108, 105, 94.4%.
